The results in this text go back to paper PMC4336329 (PLoS ONE, 2015).

The whole screen tested about 310,000 compounds, of which about 14,000 (4.5%) showed an effect of 50% or more. The effect is printed as a negative number. This is one part of the list.
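Note: peak tail current of the secondary pulse compared with the same well before compound.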

The target in this test is human ether-à-go-go-related gene (hERG) potassium channel (human, UniProt Q12809). Description: primary screen, population patch clamp on CHO cells stably expressing hERG.
human ether-à-go-go-related gene (hERG) potassium channel, sequence (Q12809 whole entry, looked up): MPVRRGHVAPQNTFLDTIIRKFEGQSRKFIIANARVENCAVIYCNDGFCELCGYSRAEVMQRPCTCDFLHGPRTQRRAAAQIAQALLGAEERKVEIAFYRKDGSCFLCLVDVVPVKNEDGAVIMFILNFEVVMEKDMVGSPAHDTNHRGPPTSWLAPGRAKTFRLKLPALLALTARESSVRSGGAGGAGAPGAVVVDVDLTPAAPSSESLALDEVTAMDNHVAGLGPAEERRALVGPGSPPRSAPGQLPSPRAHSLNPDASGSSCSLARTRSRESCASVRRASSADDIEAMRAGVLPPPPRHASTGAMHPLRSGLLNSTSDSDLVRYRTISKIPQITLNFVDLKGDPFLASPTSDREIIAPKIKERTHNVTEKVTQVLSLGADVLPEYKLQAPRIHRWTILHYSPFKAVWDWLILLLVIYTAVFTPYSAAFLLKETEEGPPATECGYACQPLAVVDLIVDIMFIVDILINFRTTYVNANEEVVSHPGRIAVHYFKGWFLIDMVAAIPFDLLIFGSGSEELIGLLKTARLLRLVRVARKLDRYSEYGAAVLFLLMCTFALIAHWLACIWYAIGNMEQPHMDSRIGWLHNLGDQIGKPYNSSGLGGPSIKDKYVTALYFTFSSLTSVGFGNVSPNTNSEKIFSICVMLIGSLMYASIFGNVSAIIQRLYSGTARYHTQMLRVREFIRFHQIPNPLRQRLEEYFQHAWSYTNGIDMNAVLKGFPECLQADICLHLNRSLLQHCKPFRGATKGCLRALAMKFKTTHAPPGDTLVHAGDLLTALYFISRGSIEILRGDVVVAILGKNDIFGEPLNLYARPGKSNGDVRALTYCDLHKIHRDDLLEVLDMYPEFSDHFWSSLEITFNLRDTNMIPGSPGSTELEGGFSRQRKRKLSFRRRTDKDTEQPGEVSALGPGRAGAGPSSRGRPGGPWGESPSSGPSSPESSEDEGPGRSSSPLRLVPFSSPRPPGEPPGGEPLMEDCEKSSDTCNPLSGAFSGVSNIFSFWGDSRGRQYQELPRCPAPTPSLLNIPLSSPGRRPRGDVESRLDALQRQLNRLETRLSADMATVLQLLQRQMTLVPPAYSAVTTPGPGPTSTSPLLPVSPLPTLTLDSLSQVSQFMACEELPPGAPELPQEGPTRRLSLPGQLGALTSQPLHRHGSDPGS
Regarding `O=C(NCCCc1ccccc1)C1CCC(CNc2c(N3CCCCC3)c(=O)c2=O)CC1` (stereo not shown), the “hERG current change (%, negative = inhibition) at 10uM” value was determined as 8.13%. Then `Cc1c(Cl)cccc1NC(=O)CCN1CCCC(C)C1` (stereo not shown), with -3.7%; and `CC(C)c1nc(SCC(=O)NC(=O)NC(C)(C)C)n[nH]1`, with -14.2%. The figure for `CCOc1ccc(C(=O)NC(=S)Nc2ncccc2C)cc1[N+](=O)[O-]` is -67.6%; for `O=C(C(=O)N1CCCC1)c1c(-c2ccccc2)[nH]c2ccccc12` it is 7.82%. Regarding `CCN(CC(=O)Nc1ccccc1OC)C(=O)C1CCC1`, the “hERG current change (%, negative = inhibition) at 10uM” value came out at 4.56%. The figure for `CCCCCC(=O)NC(=S)Nc1ccc2oc(=O)ccc2c1` is 8.93%; for `Cc1cc(N2CCCC2=O)cc(C)c1S(=O)(=O)NCCOc1ccc(C(C)(C)C)cc1` it is -5.35%. Regarding `O=C(CSC(=S)N1CCCC1)Nc1ncc(Cl)cc1Cl`, the “hERG current change (%, negative = inhibition) at 10uM” value worked out at 13.7%. Then `CCNC(=O)c1ccc(C2SCC(=O)N2CCc2ccccc2)cc1` (stereo not shown), with -19.6%; and `COc1ccc(OCCCC(=O)OCC(=O)NNC(=O)c2ccc([N+](=O)[O-])cc2)cc1`, with -5.31%. `Cc1ccc2nc3c(c(Nc4cccc(O)c4)c2c1)CCC3.Cl`: the “hERG current change (%, negative = inhibition) at 10uM” value is on record as -70%. Then `COc1cc(OC)c(NC(=O)CCNS(=O)(=O)c2ccc3c(c2)CC(C)N3C(C)=O)cc1Cl` (stereo not shown), with -6.33%; and `CC(=O)Nc1cccc(C(=O)N2CCC(n3nccc3NC(=O)CC(C)C)CC2)c1`, with -28.1%; and `CC(C)(C)NC(=O)C(c1ccc(F)cc1)N(Cc1cccs1)C(=O)c1ccc(CN2CCOCC2)o1` (stereo not shown), with -12.7%. Then `COc1ccccc1NC(=S)NC(=O)c1c(-c2ccccc2Cl)noc1C`, with 20.4%. `Cc1cc2cc(C)c(NCCNC(=O)c3ccccc3Cl)nc2cc1C`: the “hERG current change (%, negative = inhibition) at 10uM” value was 6.23%. With `CCOc1ccc(NC(=S)NC(=O)c2c(Br)cnn2C)c([N+](=O)[O-])c1`, the “hERG current change (%, negative = inhibition) at 10uM” value is recorded as 6.58%. Turning to `CCN1C(=O)/C(=c2\sc3nc(=O)c(Cc4ccccc4)nn3c2=O)c2ccccc21`, the “hERG current change (%, negative = inhibition) at 10uM” value was found to be 8.88%. Regarding `OCCNCc1ccc(OC2CCCC2)cc1`, the “hERG current change (%, negative = inhibition) at 10uM” value is recorded as 11.1%. `Cc1cc(C)cc(NC(=O)CN2CCN(C(=O)C3CCCO3)CC2)c1` (stereo not shown): the “hERG current change (%, negative = inhibition) at 10uM” value was determined as 7.51%. Then `Clc1ccc(Br)cc1-c1nc(-c2ccncc2)no1`, with 7.52%; and `O=C(c1cc(-c2cccs2)nc2ccccc12)N1CCN(S(=O)(=O)c2cccc(F)c2)CC1`, with -0.1%; and `CC(=O)Nc1ccc(S(=O)(=O)N2c3ccccc3NC(=O)CC2C)c(Cl)c1` (stereo not shown), with 11.9%.

With `O=C1NC2=C(C(=O)CCC2)C(c2ccc([N+](=O)[O-])cc2)N1` (stereo not shown), the “hERG current change (%, negative = inhibition) at 10uM” value is listed as 17.2%. Regarding `CCOC(=O)Cn1c(CCC(=O)O)ccc1-c1ccc(F)cc1`, the “hERG current change (%, negative = inhibition) at 10uM” value is recorded as 11.8%. Regarding `CCC(NS(=O)(=O)c1ccc(OC)cc1)C(=O)O` (stereo not shown), the “hERG current change (%, negative = inhibition) at 10uM” value is -9.95%. The figure for `Cc1ccc(-c2nc3ccccc3c(=O)n2CCCn2ccnc2)cc1` is -57.7%; for `Cc1ccccc1C(=O)c1cccn1CC(=O)NCCCN1CC(C)CC(C)C1` (stereo not shown) it is -72.1%.

For `COc1ccc(F)cc1C(=O)C1CCCN(Cc2ccc(Sc3nncn3C)o2)C1` (stereo not shown), the “hERG current change (%, negative = inhibition) at 10uM” value came to 12.6%. For `O=C(Nc1nc(-c2ccc(Br)cc2)cs1)c1cccnc1`, the “hERG current change (%, negative = inhibition) at 10uM” value is listed as 5.72%. `CCOC(=O)[C@H]1[C@H]2COc3ccccc3[C@@H]2N2C(=O)c3cc(F)ccc3NC(=O)[C@@]12C`: the “hERG current change (%, negative = inhibition) at 10uM” value is listed as -26.5%.

In the case of `O=C(CCc1nc2ccccc2c(=O)[nH]1)Nc1nnc(SCc2ccc(Cl)cc2)s1`, the “hERG current change (%, negative = inhibition) at 10uM” value was determined as 11.9%.

Turning to `Cc1ccnc(NC(=O)CS(=O)(=O)Cc2ccccc2)c1`, the “hERG current change (%, negative = inhibition) at 10uM” value is reported as -0.409%. As for `CNS(=O)(=O)c1ccc(N2CCCC2)c([N+](=O)[O-])c1`, the “hERG current change (%, negative = inhibition) at 10uM” value is on record as 10.5%. Then `Cc1noc(C)c1COC(=O)c1ccc(F)c(S(=O)(=O)N2CCCCC2)c1`, with -22.7%. `O=C1/C(=C/c2ccccn2)SC(=S)N1N1CCOCC1`: the “hERG current change (%, negative = inhibition) at 10uM” value came out at 21%. Then `CCOC(=O)CCSc1cc(C)c2ccccc2n1`, with 6.83%; and `CC(=O)N(c1ccccc1)C1CCCC1`, with 0.476%; and `O=C1CCC/C1=C/Nc1cccc(F)c1`, with 12.3%.

For the compound `Cc1ccc(-c2nc(SCC(=O)Nc3cc(C)on3)c3c(=O)n(C)c(=O)n(C)c3n2)cc1`, the “hERG current change (%, negative = inhibition) at 10uM” value turned out to be 19.9%. As for `Cc1cc([N+](=O)[O-])ccc1NC(=O)C(C)[n+]1ccccc1.[Br-]` (stereo not shown), the “hERG current change (%, negative = inhibition) at 10uM” value stood at 18.6%. The figure for `CC(=O)N1CCN(c2ccc(NC(=O)c3cccc(OCc4ccccc4)c3)cc2)CC1` is 7.06%; for `COc1ccc(C(=O)/C=C/Nc2ccc(C)cn2)cc1OC` it is -6.9%. Then `COc1ccc(Cl)cc1-n1c(C)cc(C=O)c1C`, with 4.29%; and `C=C(C)COc1ccc(-c2nc(N)ncc2-c2ccccc2OC)c(O)c1`, with -31.6%. Take `Cc1ccc(C#CC(C)(O)C(C)(C)C)cn1` (stereo not shown): the “hERG current change (%, negative = inhibition) at 10uM” value turned out to be 19.4%. The figure for `CC(C)(C)c1nc(Sc2ccc([N+](=O)[O-])cn2)n[nH]1` is 5.64%; for `CC(C)c1ccc(CNCCCSc2ncccn2)cc1.Cl` it is -22.4%. Then `O=C(CCOc1ccccc1)N1CCN(S(=O)(=O)c2cccs2)CC1`, with -9.15%; and `CCCCOc1ccc(N(CC(=O)NC2CCCCC2)C(=O)c2snc(C(N)=O)c2N)cc1`, with 1.59%; and `COC(=O)c1cc(CNC(=O)c2ccccc2Cl)ccc1OC`, with 0.487%.

Turning to `CCN(CC(=O)Nc1ccc(S(=O)(=O)N2CCCC2)cc1)Cc1ccccc1`, the “hERG current change (%, negative = inhibition) at 10uM” value is listed as -23.9%. As for `Cc1nnc(NC2=NCCC2)s1`, the “hERG current change (%, negative = inhibition) at 10uM” value amounted to 10.6%. The figure for `CCCCC(=O)Nc1nc2c(s1)COc1ccccc1-2` is 3.76%; for `CCOc1ccccc1NC(=O)C1=C(C)NC(=S)NC1c1cccs1` (stereo not shown) it is -0.276%; for `Cc1ccc(CNC(=O)c2cc3c(C)nc4ccccc4c3o2)cc1` it is 2.72%. Then `CCCCn1c(SCC(=O)N2CCCCC2C)nc2cc(S(N)(=O)=O)ccc21` (stereo not shown), with -26.4%; and `O=C(CSc1nccc(=O)[nH]1)Nc1cc(C(F)(F)F)ccc1N1CCOCC1`, with 15.5%. As to `COc1cccc(NC(=S)NCc2ccncc2)c1`, the “hERG current change (%, negative = inhibition) at 10uM” value is -7.35%. As to `Cc1onc(-c2ccccc2Cl)c1C(=O)Nc1cccc(-c2cn3cccnc3n2)c1`, the “hERG current change (%, negative = inhibition) at 10uM” value was -24.8%.

On to `Cc1ccc(C)c(NC(=O)COC(=O)Cn2c(C)csc2=O)c1`, for which the “hERG current change (%, negative = inhibition) at 10uM” value stood at 6.84%. With `Cc1ccc(N(CC(=O)NCc2ccccc2)C(=O)CCC(=O)Nc2ccccn2)cc1C`, the “hERG current change (%, negative = inhibition) at 10uM” value is 16.4%.

Take `CCOc1cccc(OCCOCCN(C)Cc2ccccc2)c1`: the “hERG current change (%, negative = inhibition) at 10uM” value is listed as -49.3%. `O=C(CSc1nnc(C2CCCCC2)o1)N1CCCCC1`: the “hERG current change (%, negative = inhibition) at 10uM” value worked out at 1.43%. The figure for `O=C(O)Cc1sc(-c2ccccc2)nc1-c1cccs1` is 15.6%; for `Cc1cn2c(=O)c(C(=O)N3CCN(c4ccccc4F)CC3)cnc2s1` it is -6.27%; for `Cl.NC(c1ccccc1)c1ccncc1` (stereo not shown) it is 15.3%. For `COc1cccc(O)c1CN1CCC(n2nccc2NC(=O)c2ccc3c(c2)OCO3)CC1`, the “hERG current change (%, negative = inhibition) at 10uM” value is on record as -24%. Consider `CC(=O)c1sc2nc(-c3cccs3)cc(C(F)(F)F)c2c1N`, for which the “hERG current change (%, negative = inhibition) at 10uM” value worked out at 14.5%. The figure for `CC(C)NC(=O)/C(=C/c1ccco1)c1ccccc1` is -2.25%; for `CCCCN1C(=O)C(=O)N(CC(=O)c2ccc3c(c2)OCO3)C1=O` it is -5.91%. As for `CCCC(=O)Nc1ccc(C(=O)NCCc2ccc(F)cc2)cc1`, the “hERG current change (%, negative = inhibition) at 10uM” value stood at 8.66%. As to `CCCn1c(C)cc(/C=C(\C#N)C(=O)OCC(=O)Nc2ccc(OC)c(Cl)c2)c1C`, the “hERG current change (%, negative = inhibition) at 10uM” value is 12.1%. The figure for `O=C(CNC(=O)c1ccc(Cl)cc1)Nc1ccc(S(=O)(=O)Nc2ncccn2)cc1` is 2.39%; for `O=C1[C@H]2[C@@H](C3CC3)N3C(=O)CN(Cc4ccccn4)C(=O)[C@@]3(Cc3ccccc3)[C@H]2C(=O)N1c1ccccc1` it is 5.24%.

Regarding `COC(=O)C1=Nc2ccccc2/C1=C\c1c(O)n(C)c(=O)n(C)c1=O`, the “hERG current change (%, negative = inhibition) at 10uM” value is listed as 11.2%. Regarding `Cc1onc(-c2ccccc2)c1C(=O)Nc1ccc2c(c1)OCO2`, the “hERG current change (%, negative = inhibition) at 10uM” value was -0.651%. The figure for `CCc1ccc2c(c1)c(N=NC1=NC(=O)CS1)c(O)n2CC` is 11.2%.

With `CSc1nnc(C(C)c2ncc(C(F)(F)F)cc2Cl)n1C` (stereo not shown), the “hERG current change (%, negative = inhibition) at 10uM” value is listed as 8.26%. Consider `Cc1c(C(=O)N2CCCC2)c(S(=O)(=O)N2CCN(c3ccccc3F)CC2)c(C)n1C`, for which the “hERG current change (%, negative = inhibition) at 10uM” value is -10.7%. In the case of `Cc1nc2scc(C)n2c(=O)c1S(=O)(=O)NCc1ccccc1Cl`, the “hERG current change (%, negative = inhibition) at 10uM” value was 8.43%. Then `Cc1ccc(-c2cc(C(=O)OCC(=O)Nc3cc(C)on3)c3ccccc3n2)c(C)c1`, with 2.66%.

Take `CN(Cc1cc(=O)n2ccsc2n1)c1ccccc1`: the “hERG current change (%, negative = inhibition) at 10uM” value is recorded as 3.26%. The figure for `CCCC(=O)O[C@]1(C(=O)CCl)[C@@H](C)C[C@H]2[C@@H]3CCC4=CC(=O)C=C[C@]4(C)[C@@]3(F)C(=O)C[C@@]21C` is -15.5%; for `CCN(CC(=O)N1CCC(C)CC1)S(=O)(=O)c1ccc(C)cc1` it is 7.48%; for `Cc1cccn2c(=O)c(/C=C(\C#N)C(=O)NC3CCS(=O)(=O)C3)c(N3CC(C)OC(C)C3)nc12` (stereo not shown) it is 14.7%. Then `CCc1ccc(N2CC(C(=O)Nc3ccc(S(=O)(=O)N4CCOCC4)cc3)CC2=O)cc1` (stereo not shown), with 5.25%.
